About 2,300 (1%) of roughly 220,000 compounds were called active. The inconclusive results got no clear call from the source; some entries with a clear call stand among them for comparison. Calls come from the whole dose curve; as a rule, active = well fitted inhibition curve with a large enough effect; inconclusive = small, poorly fitted or top-dose-only effect, or effect the other way; inactive = no such curve, though single readings can be large or run the other way. Potencies of inconclusive entries are left out as doubtful fits.
target: Neuropeptide S receptor (Homo sapiens) (UniProt Q6W5P4); test: qHTS Assay for Antagonists of the Neuropeptide S Receptor: cAMP Signal Transduction; conditions: CHO-NPSR cells, cAMP TR-FRET, antagonist mode; series mostly up to 38.3 µM; note: nearly all actives have a fitted effect of over 50% in size
UniProt Q6W5P4, sequence (Q6W5P4 whole entry, looked up): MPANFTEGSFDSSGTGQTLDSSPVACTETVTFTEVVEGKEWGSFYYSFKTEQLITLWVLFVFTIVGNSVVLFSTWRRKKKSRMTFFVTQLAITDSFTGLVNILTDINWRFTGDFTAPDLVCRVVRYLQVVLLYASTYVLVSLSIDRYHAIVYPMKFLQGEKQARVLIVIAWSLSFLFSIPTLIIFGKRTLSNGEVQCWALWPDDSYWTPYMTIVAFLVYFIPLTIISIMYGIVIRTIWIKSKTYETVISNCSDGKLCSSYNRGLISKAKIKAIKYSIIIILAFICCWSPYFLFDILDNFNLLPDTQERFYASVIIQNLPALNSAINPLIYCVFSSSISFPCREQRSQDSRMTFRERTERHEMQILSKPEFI
Source text: NIH Chemical Genomics Center [NCGC] NIH Molecular Libraries Probe Production centers Network [MLPCN] MLPCN Grant: X01-DA026210-01 Assay Submitter (PI): Heilig, Markus Alexander NCGC Assay Overview: Neuropeptide S receptor (NPSR), previously known as GPR154, is a recently de-orphanized G protein coupled receptor. Its endogenous ligand is the 20 amino acids peptide Neuropeptide S (NPS). […] NPS and its receptor are found in various tissues. Specifically they are highly expressed in brain areas that have been implicated in modulation of arousal, stress and anxiety. Central administration of NPS in mice produces an unusual profile of activity by inducing wakefulness and arousal, while at the same time suppressing anxiety. Therefore, NPSR may represent a novel drug target for the treatment of sleep and anxiety disorders. To identify NPSR antagonists, we developed a cell-based cAMP assay. NPS can stimulate the production of cAMP in Chinese hamster ovary cells stably expressing NPS receptor. This change in intracellular cAMP level can be detected by a homogeneous LANCE cAMP assay based on the TR-FRET (time resolved fluorescence resonance energy transfer) between a europium-labeled cAMP tracer complex and a cAMP-specific antibody labeled with Alexa Fluor 647. The europium-labeled cAMP tracer complex is formed by the tight interaction between Biotin-cAMP (b-cAMP) and streptavidin labeled with Europium-W8044 chelate (Eu-SA). Light pulse at 320 nm excites the europium of the cAMP tracer and the energy emitted is transferred to the Alexa molecule bound to the cAMP antibody, generating a TR-FRET signal at 665 nm. Residual energy from the europium will produce a light at 620 nm. The native unlabeled cAMP from cell lysates competes with the europium-cAMP tracer for antibody binding and reversely reduces the emission signal of Alexa by interrupting FRET between the two labeled molecules. Both emission signals from the FRET donor (620 nm) and the acceptor (665 nm) can be detected by a plate reader in the TRF mode. Expression of result in fluorescence ratio (665 nm/620 nm) helps to normalize differences due to cell density and reagent dispensing. This assay was successfully optimized to a 1536-well plate format.
NCGC Assay Protocol Summary: A Chinese hamster ovary (CHO) cell line stably expressing the NPS receptor (CHO-NPSR) was obtained from Dr. Heilig lab at NIAAA and maintained in F-12 Kaighn's media (Invitrogen, Carlsbad, CA, 21127) supplemented with 10 % FBS, 100 units/ml penicillin, 100 ug/ml streptomycin and 250 ug/ml geneticin at 37C, 5% CO2 in a humidified atmosphere. Before the assay, aliquots of cells were frozen and stored at -135C. The assay was performed in 1536-well format. Data are reported for both the ratio of the two emission wavelengths, and also for the component 'donor' channel, Em2=620. Data were normalized to the controls for basal activity (DMSO only) and 100% inhibition (No NPS control). IC50 values were determined from concentration-response data modeled with the standard Hill equation. NPS 1536-well assay protocol: (1) Fresh or frozen CHO-NPSR cells were suspended in F-12 Kaighn's media supplemented with 10 % FBS, 100 units/ml penicillin and 100 ug/ml streptomycin. Cells were plated at 4 ul/well (1200 cells) to white, tissue culture treated 1536-well plates, and then cultured at 37C, 5 % CO2 for 16 to 30 hours. (2) Add 23 nl/well of compound in DMSO solution. The final titration for each compound was between 0.6 nM and 46 uM. (3) Add 1 ul of stimulation reagent (1X HBSS buffer, 5 mM HEPES, 0.1% BSA, 500 uM RO-201724 (Sigma-Aldrich, B8279), 1.5% Alexa 647-labeled anti-cAMP antibody (from Perkin Elmer), 100 nM NPS) (4) Incubation at 37C, 5 % CO2 for 60 min. (5) Add 1 ul/well detection reagent. Detection reagent was prepared by adding biotin labeled cAMP (4%), streptavidin labeled with Europium-W8044 chelate (1.33%) and TritonX-100 (1%) to detection buffer. […]
Potency is the fitted concentration of half-maximal effect; tags give direction and shape of the fitted curve.

Row | SMILES | Potency
1 | CCC(CC)C(=O)Nc1ccc(Sc2ccc([N+](=O)[O-])cc2)cc1 | inconclusive [inhibitor, partial curve]
2 | CCCC1(C(=O)OCC)NC(c2cc(OC)c(OC)c(OC)c2)C2C(=O)N(CC)C(=O)C21 (stereo not drawn) | inactive
3 | CC(C)C(=O)Nc1ccc(C(=O)NC2CCSC2=O)cc1 (stereo not drawn) | inconclusive [inhibitor, single point]
4 | FC(F)(F)c1ccccc1NC(=S)NN=C1CCCCCC1 | inactive
5 | CCCc1cc(N2CCN(C(=O)c3ccco3)CC2)n2c(nc3ccccc32)c1C#N | inconclusive [inhibitor, partial curve]
6 | CC(=O)c1cccc(NC(=O)COc2ccc(S(=O)(=O)N3CCCCC3)cc2)c1 | inconclusive [inhibitor, partial curve, poor fit]
7 | CN1C(=O)SC(Nc2ccccc2)C1=O (stereo not drawn) | inconclusive [activator, single point]
8 | O=C(CC(c1ccco1)C1CCCCC1=O)c1ccco1 (stereo not drawn) | inactive
9 | CCCn1c(SC(C(=O)Nc2cc(C)ccc2OC)c2ccccc2)nc2ccccc2c1=O (stereo not drawn) | inactive
10 | O=C(NCCc1ccccc1)C1CCN(S(=O)(=O)c2cccs2)CC1 | inactive
11 | O=C(O)c1cc(-c2ccc(/C=N/N3C(=O)C4C5C=CC(CC5)C4C3=O)o2)ccc1Cl (stereo not drawn) | inactive
12 | Cn1c(C(=O)NCc2ccccn2)cc2c(=O)n3ccccc3nc21 | inconclusive [inhibitor, partial curve, poor fit]
13 | Cc1nn(-c2ccc(C(F)(F)F)cn2)c(C)c1Oc1ccccc1O | inconclusive [inhibitor, single point]
14 | COc1ccc(N2CCN(c3nc(NCCc4ccc(OC)c(OC)c4)nc(OC)n3)CC2)cc1 | inconclusive [inhibitor, partial curve, poor fit]
15 | COc1ccc(N(C(=O)c2ccco2)S(=O)(=O)c2cc(Cl)c(Cl)cc2Cl)cc1 | inconclusive [inhibitor, single point]
16 | CC(=O)Nc1ccc(S(=O)(=O)N2CCSC2c2ccccc2Cl)cc1 (stereo not drawn) | inconclusive [inhibitor, partial curve, poor fit]
17 | COc1ccc(C2CC(c3ccccc3)=NN2c2ccc(Cl)c(C(=O)O)c2)cc1 (stereo not drawn) | inconclusive [activator, partial curve]

Row | SMILES | Potency
18 | Cc1cc(C)nc(SCc2cc(=O)c(OC(=O)c3ccc(Br)o3)co2)n1 | inconclusive [activator, partial curve]
19 | Cc1nc(N2CCN(Cc3ccccc3)CC2)nc2c1C(=O)CCC2 | inconclusive [inhibitor, single point]
20 | COc1ccc(N(CC(O)Cn2c3ccccc3c3ccccc32)S(=O)(=O)c2ccccc2)cc1 (stereo not drawn) | inconclusive [inhibitor, partial curve]
21 | Cc1cccc(-n2c(=O)c3c(n4cnnc24)-c2ccccc2CC32CCCCC2)c1 | inconclusive [inhibitor, single point]
22 | CC(=O)c1cccc(NC(=O)Nc2cnn(Cc3ccc(Cl)cc3Cl)c2)c1 | inconclusive [inhibitor, single point]
23 | CN1CCN(CCCNC(=O)c2ccc(CSCc3cccc(Cl)c3)o2)CC1 | inactive
24 | CCOc1ccc(C(CC(=O)O)NC(=O)c2sc3ccccc3c2Cl)cc1 (stereo not drawn) | inconclusive [activator, partial curve]
25 | Cc1nc(N)sc1-c1csc(Nc2ccccn2)n1 | inactive
26 | COc1cccc(-c2cc(C(=O)N3CCN(C(c4ccccc4)c4ccccc4)CC3)no2)c1 | inconclusive [inhibitor, partial curve, poor fit]
27 | COc1ccc(-c2nc(N3CCCCCC3)sc2C(=O)c2ccccc2)cc1 | active: 5.01 µM
28 | COc1ccc(NC(=O)CSc2nc(N)c(C#N)cc2C#N)cc1 | inconclusive [inhibitor, single point]
29 | COCc1cc(C)nc(OCC(=O)N/N=C/c2ccc(O)cc2)c1C#N | inactive
30 | CSCC[C@H](NC(=O)CCCn1nnc2ccccc2c1=O)C(=O)O | inactive
31 | CCCCNc1ccc2c3c(cccc13)C(=O)N(CCCC)C2=O | inconclusive [activator, partial curve]
32 | COC(=O)C1=C(C)N=C2SCCC(=O)N2C1c1cc(Br)ccc1OC (stereo not drawn) | inconclusive [inhibitor, single point]
33 | O=C(COC(=O)CN1C(=O)c2ccccc2C1=O)Nc1ccc(S(=O)(=O)N2CCCC2)cc1 | inactive
